Source: article PMC12040169 (PLOS Biology, 2025)
This is one part of the list.

These molecules were tested on T1, C. trachomatis L2/434/Bu expressing GFP (CTL2-GFP). Conditions: total inclusion area; 28.5 h, 10 µM; inhibitor.
T1 construct: L2/434/Bu GFP intracellular growth in HeLa cells
Parameters: species or system HeLa; C. trachomatis total inclusion area by high-content imaging, normalised to DMSO
In short: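 Bulk GFP and resorufin signals were read first. Wells were then fixed, stained with Hoechst and imaged to detect GFP inclusions and host nuclei. MICs followed the previously described calculation.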

SMILES	% of control remaining
O=C(CSc1nnnn1CC1CCCO1)N1CC=C(c2ccccc2)CC1 (stereo not drawn) [CBK295160]	97.3077
O=C(Cn1cnc2ccccc2c1=O)NCCc1ccsc1 [CBK287844]	69.5272
COc1ccc(CCNC(=O)c2cnc(-c3ccc(Cl)cc3)c(-c3cccc(CNC(C)=O)c3)c2)cc1OC [CBK164413]	81.3271
c1ccc(-c2c(-c3ccccc3)n(Cc3ccco3)c3ncn4nc(-c5cccnc5)nc4c23)cc1 [CBK265374]	101.357
Cc1c(C(=O)O)ccc2c1N[C@@H](c1ccc(OCC#N)cc1)C1CC=CC21 (stereo partly drawn) [CBK287124]	84.2159
O=C(O)C1CCCN1S(=O)(=O)c1ccc(Cl)cc1 (stereo not drawn) [CBK261249]	112.475
CCOc1ccc2nc(NC(=N)N)nc(C)c2c1 [CBK010384C]	1.198
Cc1sc2nc(Cc3ccccc3)n(C3CCN(C(=O)c4ccco4)CC3)c(=O)c2c1C [CBK286317]	89.685
Cc1nn(C(C)CC(=O)Nc2ccnn2C(C)C)c(C)c1Cl (stereo not drawn) [CBK281537]	72.8333
c1ccc(COc2nccnc2-c2cccs2)nc1 [CBK107055]	95.7125
NNC(=O)Cn1c(-c2ccccn2)nc2ccccc21 [CBK263489]	105.646
CC(=O)NC(CC(=O)NCc1cccnc1-n1cncn1)c1ccc(Cl)cc1 (stereo not drawn) [CBK298314]	121.965
O=C(Nc1cccnc1N1CCNCC1)c1ccoc1 [CBK029417T]	107.195
COC(=O)Cc1nc(NS(=O)(=O)c2ccc(Oc3cccc(Cl)c3C#N)cc2)sc1C [CBK000744]	101.578
O=C(O)CCCn1c(=O)c2cc3c(=O)n(CCCC(=O)O)c(=O)c3cc2c1=O [CBK265748]	111.978
CCCCOc1cccc(C(=O)Nc2ccc(-c3nc4ccccc4o3)c(O)c2)c1 [CBK263435]	103.031
OC(CNc1nccnc1-c1ccccc1Cl)COc1ccccc1 (stereo not drawn) [CBK037085]	104.586
O=C(Nc1nccc(N2CCNCC2)n1)c1cccs1 [CBK004305T]	97.1816
O=S(=O)(Cc1ccc(-c2nc(-c3ccncc3)no2)o1)c1ccccc1 [CBK288579]	82.4218
CCc1c(C)nc2c(C(=O)NCCCN3CCCC3=O)cnn2c1C [CBK162128]	79.1086
N#Cc1cccc(C(=O)NCCc2nnc3n2CCCCC3)c1 [CBK259813]	36.7616
CCCCN(C=O)c1c(CC)nc2c(OCc3ccccc3C)cccn12 [CBK147639]	91.3249
Nc1ncnc(Nc2ccc(F)cc2Cl)c1[N+](=O)[O-] [CBK267255]	106.53
NS(=O)(=O)c1cccc(NC(=O)c2cccs2)c1 [CBK024419]	81.951
O=C(O)COc1ccc(S(=O)(=O)Nc2ccc(F)cc2)cc1 [CBK268442]	96.8045
CC(=O)c1ccc(-c2cnc(N)c(NC3CCCCC3)n2)s1 [CBK063596]	88.6656

SMILES	% of control remaining
COc1ccc(-c2cc(C(=O)NCc3ccc(F)cc3)cnc2-c2cccc(C)c2)cc1 [CBK036702]	122.129
COc1cccc(CN2CCC(c3ncc(C(=O)Nc4ccc(F)cc4)c(C)n3)CC2)c1 [CBK285630]	81.4186
Cc1nc2cc(OCc3nc(C(=O)NCC(O)CO)co3)ccc2s1 (stereo not drawn) [CBK307067]	68.3876
Cc1cc(-c2cccs2)c(C#N)c(SCc2cccnc2)n1 [CBK270172]	103.902
COC(=O)c1cc(NC(=O)CC2Sc3ccccc3NC2=O)cc(C(=O)OC)c1 (stereo not drawn) [CBK266260]	108.888
CN(CCc1ccccc1)Cc1nc2ccccc2c(=O)[nH]1 [CBK283204]	100.19
COc1cncc(-c2cc(Nc3ccc(OC)c(OC)c3)ncn2)c1 [CBK090824]	65.7039
OC(CNCCc1c[nH]c2ccccc12)COc1cccc2c1CCCC2 (stereo not drawn) [CBK003831]	67.3895
COc1cc(CNC2CCCCCC2)c([N+](=O)[O-])cc1OC [CBK262194]	126.009
O=C(O)c1cccnc1SC1CC(=O)N(c2ccc(F)cc2)C1=O (stereo not drawn) [CBK265582]	101.887
Cc1ccc(-c2nccnc2OCc2ccc3c(c2)OCO3)c(C)c1 [CBK106982]	85.7866
CC1C(=O)N2CCCc3cc(S(=O)(=O)NCc4ccc5c(c4)OCO5)cc1c32 (stereo not drawn) [CBK294419]	125.325
NS(=O)(=O)c1ccc(Nc2ncccc2[N+](=O)[O-])cc1 [CBK261724]	81.0839
CC(C)(O)C#Cc1ccc(C(=O)N2CCCC2C(=O)O)s1 (stereo not drawn) [CBK286869]	71.587
Cc1noc(C)c1CN1CCC(Cc2ccccc2)CC1 [CBK305752]	63.0423
CCOC(=O)c1[nH]c2ccccc2c1NC(=O)c1ccc(Cl)c(C)c1 [CBK160146]	104.438
CCOc1ccccc1C(=O)Nc1cnc(-c2cccc(OC(F)(F)F)c2)c(-c2cccnc2)n1 [CBK036952]	81.559
O=C(NCC(c1ccccc1)N1CCOCC1)c1cnc(-c2ccc(F)cc2)c(-c2ccco2)c1 (stereo not drawn) [CBK037531]	129.129
COc1ccc(N2CCN(CC(=O)Nc3ccc(Cl)cc3C(=O)c3ccccc3)CC2)cc1 [CBK265743]	82.1248
CC(C)(CN)CN(Cc1ccc(Cl)cc1Cl)C(=O)NCCc1c[nH]c2ccccc12 [CBK000460C]	54.9762
CC(=O)N1c2ccc(C(O)CN3CCCC(C)C3)cc2CC1C (stereo not drawn) [CBK282922]	100.497
CC(=O)NC1CCN(c2nc(N(C)C)nc3c2CCN(C(C)=O)C3)CC1 [CBK307079]	75.507
Cc1ccccc1-n1ncc2c(=O)n(Cc3ccccc3)cnc21 [CBK287690]	80.4963
O=C1CCCN1CCCNC(=O)N1CCN(CCc2ccccc2)CC1 [CBK158932]	107.615
CC(CN(C)C(=O)Cn1cccc(C(=O)Nc2ccc(F)cc2)c1=O)c1ccccc1 (stereo not drawn) [CBK286065]	84.2632
